PubChem BioAssay AID1346428 (National Center for Advancing Translational Sciences (NCATS), 2018)
In all, about 48,000 compounds went through this assay and about 1,200 (2.5%) were called active. Inconclusive results (about 2%) are left out.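 Rule for the calls: active = activation of at least 60% and not above a set upper limit (about 1 call in 100 departs from these limits); inconclusive = activation of 40% to 60%, or above that upper limit; inactive = activation under 40%.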 This is one part of the list.

Biological target: Probable G-protein coupled receptor 32 (Homo sapiens) (UniProt O75388)
Sequence of UniProt O75388 (O75388 whole entry, looked up): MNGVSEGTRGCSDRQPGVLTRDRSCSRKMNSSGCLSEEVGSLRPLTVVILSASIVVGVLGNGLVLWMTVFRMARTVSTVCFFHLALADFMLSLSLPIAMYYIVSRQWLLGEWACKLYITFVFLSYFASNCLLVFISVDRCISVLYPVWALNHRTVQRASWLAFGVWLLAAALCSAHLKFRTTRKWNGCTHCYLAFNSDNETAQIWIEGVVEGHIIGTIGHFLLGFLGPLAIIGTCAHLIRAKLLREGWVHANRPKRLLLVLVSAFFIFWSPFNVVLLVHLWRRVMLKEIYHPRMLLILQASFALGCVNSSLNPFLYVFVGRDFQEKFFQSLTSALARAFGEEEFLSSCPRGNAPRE
Experiment: qHTS for Agonists of Human Resolvin D1 Receptor DRV1
Conditions: CHO-K1 GPR32 beta-arrestin PathHunter luminescence, 90 min; at 76.9 µM; active compounds read high; zero percent set by DMSO-only wells
Text: Endogenous resolution of inflammation is known to be transduced through various GPCRs and their natural mediators of lipid nature. Resolvin D1 (RvD1) is one of the active players in resolution of acute inflammation through regulation of anti-inflammatory pathways; it is known to enhance phagocytosis of human macrophages, limits neutrophils infiltration, etc. […] The search for GPR32-activating small molecules with anti-inflammatory effects similar to its natural omega-3 derivative ligand in order to use them as research tools for further studies of inflammation and its resolution was the goal of this screening project. For primary screening assay, we used CHO-K1 GPR32 beta-arrestin cell line (DiscoveRx, #93-0321C2A) and the PathHunter(R) beta-Arrestin Assay (DiscoveRx) which measures recruitment of beta-arrestin to the GPR32 and generates chemiluminescent signal. These engineered cells stably transfected with GPR32 co-express GPR32-fused small 42-amino acid fragment of beta-Gal called ProLinktrade mark, and […] -tagged beta-Arrestin fusion protein. When GPR32 is activated by a ligand, it stimulates binding of beta -Arrestin to ProLink-tagged GPR32, and two parts of beta-Gal complement forming a functional enzyme. Upon substrate (PathHunter(R) Detection reagent) addition, beta-Gal hydrolyzes it and generates a chemiluminescent signal.
The cells were thawed and plated in thawing media containing F-12 HAM (Invitrogen, #11765-054), 10% FBS (Invitrogen, #10082), 1x Glutamine, and 1x Pen/Strep onto the 175-mm flask for 24 hours. Then, thawing media was replaced with Growth media which contains 800microg/mL Geneticin (Invitrogen, #10131) and 300microg/mL Hygromycin B (Invitrogen, #10687) in addition to described above. For the assay, the cells were harvested at ~80% confluent stage with Cell Dissociation buffer (Gibco, #13151), and seeded at 2,500 cells/ 3microL/well in assay media (PathHunter(R) Cell Plating Reagent, DiscoverX, #93-0563R1B) using MultiDrop Combi dispenser (Thermo Scientific, Logan, UT) onto white solid bottom tissue culture-treated 1536-well plates (Greiner # 789173-F) and allowed to attach overnight at 37 degrees C, 95% humidity, 5% CO2, . Next, 23nL/well of compound solutions in DMSO were added with a Pin Tool (Kalypsis, San Diego, CA) to the assay plates. As the basal control (EC0), 23 nL/well of DMSO was used on each plate. The cells were incubated in the presence of compounds or DMSO for 90 minutes at 37 degrees C, 5% CO2. Subsequently, 1.5microL/well of PathHunter(R) Detection Reagent prepared per the manufacturer's instructions was added to the assay plates with BioRAPTR FRDtrade mark dispenser (Beckman Coulter, San Francisco, CA) and incubated for 1 hour at ambient temperature prior to the measurement of the luminescent signal on ViewLux(R) uHTS Microplate Imager (Perkin Elmer, Waltham, MA).

activation, inactive:
COCCn1c(CNC(=O)c2ccc(C)cc2)nc2cccnc21 -8.6%, COc1ccccc1-c1nc2c3c(-c4ccccc4)c(-c4ccccc4)oc3ncn2n1 4.81%, CCN(CC)CCOC(=O)c1ccc(NC(=O)Cn2ncc3c([nH]c4ccc(C)cc43)c2=O)cc1 6.5%, Cc1ccc(C)c(Cn2c3ccccc3c3cnn(CC(=O)NCCCc4ccccc4)c(=O)c32)c1 -11.6%, CCOc1ccc(-c2nonc2NC(=O)c2oc3c(C)c(C)ccc3c2C)cc1OCC -5.72%, O=c1cc(-c2ccccc2F)[nH]c2cc3c(cc12)OCO3 -2.7%, COc1ccc2cc3cc(C(=O)NCc4ccc(C)cc4)oc3nc2c1 27.6%, Cc1cc(C)cc(NC(=O)CSc2nc3c(oc4ccccc43)c(=O)n2-c2ccccc2F)c1 10.2%, CCc1cccc(OCC(=O)Nc2ccc(S(=O)(=O)Nc3cc(C)nc(C)n3)cc2)c1 1.57%, COc1ccc(F)cc1S(=O)(=O)NCCc1c(C)[nH]c2c(Cl)cccc12 -22.3%, COc1ccc(OC)c(CCNC(=O)c2ccc3c(c2)N(Cc2ccc(C)cc2)CCS3)c1 -18.2%, COc1ccc(Nc2cc(C(=O)NCCc3ccc(C)cc3)c3ccccc3n2)c(OC)c1 -17.1%, Cc1ccc(-c2nnc(Nc3ccc(O)cc3)c3ccccc23)cc1S(=O)(=O)N1CCN(C)CC1 30.6%, S=C(S)OC1CC2CC1C1CCCC21 (configuration not stated) -22.4%, CCCCOc1ccc(C(=O)Nc2nnc3n2CCS3)cc1 -7.94%, CCOCCCNC(=O)C1CCN(c2nn3cc(-c4ccc(F)cc4)nc3s2)CC1 -1.68%, CCOC(=O)N1CCC(NC(=O)c2c(C)nn(-c3ccc(C)cc3)c2-n2cccc2)CC1 0.743%, CCCn1c2ccccc2c2cnn(CC(=O)NCCc3ccc(OCC)cc3)c(=O)c21 -8.29%, CCC(C(=O)OCCOCCN(CC)CC)c1ccccc1 (configuration not stated) 2.16%, CCOc1ccc(-c2nn(CC(=O)NC3CCCCC3)c3c2cnc2ccc(C)cc23)cc1 -1.87%, CCOc1ccc(NC(=O)CCNS(=O)(=O)c2ccc3c(c2)oc(=O)n3C)cc1 8.92%, Cc1ccc(C(=O)NCCc2ccc(Cl)cc2)cc1-n1c(C)nc2cccnc21 -4.84%, COc1cc(-c2noc(-c3ccc(NCc4ccccc4)c([N+](=O)[O-])c3)n2)cc(OC)c1OC 9.96%, Cc1ccc(C)c(Cn2c3ccccc3c3cnn(CC(=O)NCCC4=CCCCC4)c(=O)c32)c1 -0.988%, COc1ccc(Cl)cc1NC(=O)c1sc(-n2nc(C)c(Cc3ccccc3)c2C)nc1C 3.29%, COc1ccc(NC(=O)Cn2nnc3sc4c(c3c2=O)CCC(C)C4)c(OC)c1 (configuration not stated) -5.72%, COc1ccccc1CNC(=O)c1ccc2c(c1)N(Cc1cccc(C)c1)C(=O)c1ccccc1S2(=O)=O -2.55%, CCn1c(=O)c2cc(C(=O)N(CCN(C)C)Cc3ccccc3)sc2c2ccccc21 10.9%, COc1ccc(C2CC(=O)N(Cc3ccccc3C)c3c2c(C)nn3-c2nc(C)cc(C)n2)c(OC)c1 (configuration not stated) -9.26%, CC(C)(C)c1ccc(-c2nc(SCCOc3ccc(Cl)cc3)n3[nH]c(=O)cc3n2)cc1 33.6%, Cc1ccccc1-n1c(SCC(=O)Nc2ccc(Cl)cc2Cl)nc(O)cc1=O -5.25%, COc1ccc(-c2nc3c4ccccc4n(CC(=O)Nc4ccc(C(C)C)cc4)c(=O)n3n2)cc1 -8.25%, COc1ccc(NC(=O)CSC2=Nc3ccccc3C3=NC(CC(=O)NCc4ccccc4OC)C(=O)N23)cc1Cl (configuration not stated) -21.3%, Cc1ccc(S(=O)(=O)N2CCc3cc(C(=O)N(C)Cc4ccccc4)ccc32)cc1 -14.5%, CC(=O)N1CCc2c(sc3c2c(=O)n(-c2ccc(F)cc2)c(=O)n3Cc2cc(C)ccc2C)C1 -6.08%, CCc1sc(Nc2cccc(C)c2)nc1-c1cc2cccc(OC)c2oc1=O -33.1%, OCCOCCN1CCN(C2=Nc3ccccc3Sc3ccccc32)CC1 -6.83%, Cc1cccc(N(C)S(=O)(=O)c2ccc(-c3cc(C)no3)s2)c1 -22.4%, COc1ccc(S(=O)(=O)c2c(O)c(C)cc(NS(=O)(=O)c3ccc(Cl)cc3)c2C(C)C)cc1 10.9%, COc1ccc(-c2noc(-c3ccc(N4CCN(C)CC4)c([N+](=O)[O-])c3)n2)cc1 5.98%, COc1cccc(-n2c(=O)c3c(C)c(C(=O)N(C)C)sc3n(Cc3cccc(C)c3)c2=O)c1 -28%, COc1cc(C(=O)N2CCN(CCc3ccncc3)CC2)cc(OC)c1OC -9.66%, COc1ccc(C(CNC(=O)COc2cc(C)cc(C)c2)N2CCCCC2)cc1 (configuration not stated) -18.5%, COc1ccccc1-n1nc(-c2ccccc2)c2cnc3c(F)cc(F)cc3c21 17.1%, COc1ccc(-c2nc(C)c(CCNC(=O)C(=O)Nc3ccccc3F)s2)cc1 1.35%, Cc1ccc(NC(=O)Cn2c(=O)n(CC3CCC(C(=O)NC(C)C)CC3)c(=O)c3sccc32)cc1 (configuration not stated) -11.2%, COc1ccc(CCN2CCC(CNC(=O)c3cnn(-c4ccc(C)cc4)c3C3CCN(C(=O)OC(C)(C)C)CC3)CC2)cc1 -17.3%, CCc1cc(S(=O)(=O)O)c2cc(C(C)C)cccc1-2 -61.7%, Cc1ccc(CN2CCC(CNC(=O)c3cnn(-c4ccccc4)c3C3CCN(C(=O)OC(C)(C)C)CC3)CC2)cc1 -6.1%, COCCn1c(=O)[nH]c2cc(C(=O)N3CCN(c4ccc(Cl)cc4)CC3)ccc2c1=O 17.5%, Cc1ccc2c(c1)C(=O)C(=O)N2Cc1ccc(OCCC(C)C)cc1 -35.8%, COc1ccc(NC(=O)c2oc3ccc(S(=O)(=O)N4CCCCC4)cc3c2C)cc1Cl 3.28%
